Measurements from paper PMC4336329 (PLoS ONE, 2015).
Among all 310,000 compounds or so, about 2,200 (0.71%) showed an effect of 50% or more. The effect is printed as a negative number. The list shows a part of the results.

Molecular target: human ether-à-go-go-related gene (hERG) potassium channel (human, UniProt Q12809)
Assay: primary screen, population patch clamp on CHO cells stably expressing hERG

Sequence of human ether-à-go-go-related gene (hERG) potassium channel (Q12809 whole entry, looked up): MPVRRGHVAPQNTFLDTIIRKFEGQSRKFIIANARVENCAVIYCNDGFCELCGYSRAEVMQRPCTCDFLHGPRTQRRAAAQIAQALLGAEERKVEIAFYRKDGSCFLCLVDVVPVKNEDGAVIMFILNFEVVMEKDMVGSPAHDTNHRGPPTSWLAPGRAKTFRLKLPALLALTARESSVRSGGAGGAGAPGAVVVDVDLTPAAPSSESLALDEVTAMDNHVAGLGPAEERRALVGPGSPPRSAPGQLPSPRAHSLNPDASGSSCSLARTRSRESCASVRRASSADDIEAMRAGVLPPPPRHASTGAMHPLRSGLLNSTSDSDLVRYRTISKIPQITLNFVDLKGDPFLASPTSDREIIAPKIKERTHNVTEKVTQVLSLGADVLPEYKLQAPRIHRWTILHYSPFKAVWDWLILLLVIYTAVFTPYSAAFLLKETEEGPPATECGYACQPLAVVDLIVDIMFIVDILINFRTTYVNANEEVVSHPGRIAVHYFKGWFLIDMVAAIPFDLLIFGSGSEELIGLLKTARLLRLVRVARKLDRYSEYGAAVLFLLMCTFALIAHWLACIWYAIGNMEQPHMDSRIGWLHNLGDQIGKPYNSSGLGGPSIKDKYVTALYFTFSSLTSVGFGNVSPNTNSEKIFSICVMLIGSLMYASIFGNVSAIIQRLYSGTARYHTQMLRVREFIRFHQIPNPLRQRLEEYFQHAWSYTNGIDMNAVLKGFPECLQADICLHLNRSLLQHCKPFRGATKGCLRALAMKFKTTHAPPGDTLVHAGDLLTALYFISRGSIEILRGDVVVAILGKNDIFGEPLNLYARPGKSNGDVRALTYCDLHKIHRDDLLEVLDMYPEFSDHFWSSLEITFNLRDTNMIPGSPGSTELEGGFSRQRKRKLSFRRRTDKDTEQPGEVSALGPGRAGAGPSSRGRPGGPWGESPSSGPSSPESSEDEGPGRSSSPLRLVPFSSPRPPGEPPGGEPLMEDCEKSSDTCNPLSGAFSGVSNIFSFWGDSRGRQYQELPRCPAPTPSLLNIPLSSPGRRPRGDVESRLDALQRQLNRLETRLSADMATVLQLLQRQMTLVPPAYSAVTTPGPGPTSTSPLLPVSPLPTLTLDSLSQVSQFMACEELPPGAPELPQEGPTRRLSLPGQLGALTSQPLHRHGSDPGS

First: CC1CCN(C(=O)CSc2nc(=O)n3cc(Cl)ccc3n2)CC1
Second: CC1CC(C)CN(C(=O)c2ccc3nc[nH]c3c2)C1 (stereo not shown)
The “hERG current change (%, negative = inhibition) at 1uM” value of the first is lower: 1.58% for the first, 8.66% for the second.

First: CC(=O)COc1ccc2c(-c3cccc([N+](=O)[O-])c3)cc(=O)oc2c1
Second: COc1cccc(-c2coc3c(C)c4oc(=O)c(CC(=O)O)c(C)c4cc23)c1
The “hERG current change (%, negative = inhibition) at 1uM” value of the first is higher: 9.27% for the first, 8.88% for the second.

Compared with `COc1ncnc(OC)c1NC(=O)c1ccc(F)cc1`, `COc1ccc(-c2noc(C(=O)NCc3ccc(F)cc3)n2)cc1OC` is higher in “hERG current change (%, negative = inhibition) at 1uM” value: 2.78% for the first, 6.17% for the second.

Compared with `COc1ccc(NS(=O)(=O)c2ccc(NC(=S)NC(=O)c3ccc(Br)cc3)cc2)nn1`, `CC(=O)c1ccc(NC(=O)c2cc(Cl)nc3ccccc23)cc1` is higher in “hERG current change (%, negative = inhibition) at 1uM” value: 1.6% for the first, 9.16% for the second.

First: Cn1c(SCCCC(=O)c2ccc(F)cc2)nnc1-c1ccncc1
Second: COc1ccc(O)c(C(=O)c2cnc3c(c2)c(-c2ccc(F)cc2)c(C#N)c(=O)n3C)c1
The “hERG current change (%, negative = inhibition) at 1uM” value of the first is lower: -38.5% for the first, 10.7% for the second.

Going from `CCC(C)c1c(O)nc(SCC(=O)c2ccccc2)[nH]c1=O` (stereo not shown) to `COC(=O)c1cc(=O)n2c(-c3ccccc3)csc2n1`, the “hERG current change (%, negative = inhibition) at 1uM” value falls from 21.5% to -3.98%.

First: COc1ccc(C(=O)NC(=S)N(C)C2CCCCC2)cc1
Second: COc1ccc(C(CNC(=O)COc2ccccc2)N2CCCCC2)cc1 (stereo not shown)
The “hERG current change (%, negative = inhibition) at 1uM” value of the first is higher: 15.1% for the first, -4.21% for the second.

Going from `N#C/C(=C\c1ccc(N2CCOCC2)o1)C(=O)NCCc1ccccc1` to `O=C(O)c1ccc(NC2CC(=O)N(Cc3ccccc3)C2=O)cc1` (stereo not shown), the “hERG current change (%, negative = inhibition) at 1uM” value rises from 4.94% to 14%.

First: CC(C(=O)N1CCOCC1)n1cc([N+](=O)[O-])cn1 (stereo not shown)
Second: O=C(CN1CCOCC1)Nc1ccc2c(c1)OCCO2.O=C(O)C(=O)O
The “hERG current change (%, negative = inhibition) at 1uM” value of the first is higher: 16.1% for the first, 13.9% for the second.

Going from `O=C(CSc1ccc2nnc(-c3ccccc3)n2n1)N1CCCc2ccccc21` to `CCNC(=O)Nn1c(-c2ccccc2)nc2ccccc2c1=O`, the “hERG current change (%, negative = inhibition) at 1uM” value rises from 0.0114% to 17%.

First: Cc1cc(Nc2ccccc2O)c2ccccc2n1.Cl
Second: CCN(Cc1nc2ccccc2c(=O)[nH]1)C(=O)C1CC(=O)N(c2cccc3ccccc23)C1 (stereo not shown)
The “hERG current change (%, negative = inhibition) at 1uM” value of the first is higher: 14.3% for the first, 6.74% for the second.

Compared with `COc1ccc(N(C(=O)/C=C/C(=O)Nc2cc(C)on2)C(C(=O)NC2CCCC2)c2ccccc2C)cc1` (stereo not shown), `CCOC(=O)c1c(C)nc2sc3c(c2c1-c1ccc(OC)cc1)NC(c1ccc(OC)cc1)NC3=O` (stereo not shown) is lower in “hERG current change (%, negative = inhibition) at 1uM” value: 13.3% for the first, 12.9% for the second.

Compared with `COC(=O)C(Cc1ccccc1)NS(=O)(=O)c1ccc(F)cc1Br` (stereo not shown), `O=S(=O)(Cc1ccccc1)NCc1ccccn1` is higher in “hERG current change (%, negative = inhibition) at 1uM” value: 9.07% for the first, 9.52% for the second.

Going from `C/C(=N\NC(=O)c1cc(C)oc1C)c1ccc(C)c([N+](=O)[O-])c1` to `Cc1ccc(C)c(NC(=O)CCC(=O)N/N=C2/CC(=O)CC(C)(C)C2)c1`, the “hERG current change (%, negative = inhibition) at 1uM” value falls from 24.6% to 13.2%.

Compared with `COc1cccc(CN2CCN(C3CCN(c4cccc(C)c4C)CC3)CC2CCO)c1` (stereo not shown), `COc1ccc(S(=O)(=O)N2CCC(C(=O)Nc3ccccc3N3CCCCC3)CC2)cc1OC` is higher in “hERG current change (%, negative = inhibition) at 1uM” value: -30% for the first, 14.9% for the second.

Going from `Cc1ccc(S(=O)(=O)/N=S(/c2ccccc2)C(C)C)cc1` (stereo not shown) to `Cc1ccccc1N(CC(=O)Nc1ccc(S(=O)(=O)N2CCOCC2)cc1)S(C)(=O)=O`, the “hERG current change (%, negative = inhibition) at 1uM” value falls from 15.1% to 1.63%.

Going from `O=C(OCC(=O)N1CCc2ccccc21)c1ccc[nH]c1=O` to `CCOC(=O)c1cc2c(=O)n3ccccc3nc2n(C)c1=NC(=O)c1c(-c2c(F)cccc2Cl)noc1C`, the “hERG current change (%, negative = inhibition) at 1uM” value falls from 13.8% to 10.5%.

First: O=C(CCSc1ccccc1)NCC1CCCO1 (stereo not shown)
Second: O=C(CSc1nnc(NC(=O)Cc2ccccc2)s1)NCC1CCCO1 (stereo not shown)
The “hERG current change (%, negative = inhibition) at 1uM” value of the first is lower: 5.36% for the first, 11.8% for the second.

Compared with `COc1cccc(NC(=O)c2ccc[n+](C)c2)c1.[I-]`, `Cc1c(C(C)NC(=O)c2ccc3nc(Cc4ccccc4F)oc3c2)cnn1C` (stereo not shown) is higher in “hERG current change (%, negative = inhibition) at 1uM” value: 8.89% for the first, 15.2% for the second.

First: COc1ccc(CC(=O)N2CC3(C)CC2CC(C)(C)C3)cc1OC (stereo not shown)
Second: CCc1nnc(NC(=O)CCC(=O)Nc2ccc(OC)cc2OC)s1
The “hERG current change (%, negative = inhibition) at 1uM” value of the first is lower: -3.57% for the first, 18.1% for the second.

Going from `O=c1[nH]c2ccccc2cc1CN(Cc1ccco1)S(=O)(=O)c1ccccc1` to `O=C(Nc1ccccc1)C1=C[C@@H](c2coc3ccccc3c2=O)C[C@@H](OCc2ccc(CO)cc2)O1`, the “hERG current change (%, negative = inhibition) at 1uM” value falls from 15.6% to 6.46%.

Compared with `Fc1ccc(-c2cc(C(F)(F)F)n3ncnc3n2)cc1`, `O=C(c1ccc(OC2CCN(Cc3ccc(C(F)(F)F)cc3)CC2)cc1)N1CCCCC1` is higher in “hERG current change (%, negative = inhibition) at 1uM” value: 0.0583% for the first, 6.84% for the second.

Compared with `CCCCn1cc(C(=O)c2cc(Br)ccc2O)cc(C#N)c1=O`, `CCCCNC(=O)C1CC(=O)N(c2ccc(OC)cc2)C1c1ccc(OC)cc1` (stereo not shown) is lower in “hERG current change (%, negative = inhibition) at 1uM” value: 13.4% for the first, 8.88% for the second.

Going from `C/C(=N\O)c1ccc2c3c([nH]c2c1)CCCC3` to `O=C(NC1CCCCCC1)c1cc(S(=O)(=O)N2CCOCC2)ccc1F`, the “hERG current change (%, negative = inhibition) at 1uM” value rises from 5.78% to 15%.

Going from `CC1(C)OC(C(O)(c2ccccc2)c2ccccc2)[C@@H](C(O)(c2ccccc2)c2ccccc2)O1` (stereo partly shown) to `COc1ccc(S(=O)(=O)N2CCOC2CNC(=O)C(=O)NCc2ccncc2)cc1C` (stereo not shown), the “hERG current change (%, negative = inhibition) at 1uM” value falls from 8.96% to 3.12%.

First: CC(C)C1=NN(C(=O)c2cccnc2)C(O)(C(F)(F)F)C1 (stereo not shown)
Second: O=S(=O)(NCc1cccnc1)c1ccc(Br)s1
The “hERG current change (%, negative = inhibition) at 1uM” value of the first is lower: -14.2% for the first, 3.29% for the second.

Compared with `Cc1ccc2c(c1)-c1c(ssc1=S)C(C)(C)N2C(=O)CSC1=NCCS1`, `C[C@]12CCC[C@H](O1)c1c(cc3c(c1O)C(=O)c1c(O)cc(O)cc1C3=O)O2` is lower in “hERG current change (%, negative = inhibition) at 1uM” value: 8.21% for the first, 3.96% for the second.

With `C=CCNc1nc(N)c([N+](=O)[O-])c(Nc2ccccc2OC)n1` the “hERG current change (%, negative = inhibition) at 1uM” value was 6.42%.
